Measurements taken from the supplement of paper PMC12217912.
The list shows a part of the results. The full chains were built here from the parent and the listed change. Values near 0.05 are background.

B1: TEV protease; numbered along this chain (parent)
chain: MGESLFKGPRDYNPISSSICHLTNESDGHTTSLYGIGFGPFIITNKHLFRRNNGTLVVQSLHGVFKVKDTTTLQQHLVDGRDMIIIRMPKDFPPFPQKLKFREPQREERICLVTTNFQTKSMSSMVSDTSCTFPSGDGIFWKHWIQTKDGQCGSPLVSTRDGFIVGIHSASNFTNTNNYFTSVPKNFMELLTNQEAQQWVSGWRLNADSVLWGGHKVFMVKPEEPFQPVKEATQL

Variants of: B1
Test: raw area under fraction-flipped curve 0-4 h after induction (AUC4h, not background-subtracted), DNA-recorder readout of cleavage of the substrate (dimensionless); higher = more cleavage of the substrate by the protease variant
Settings: temperature: 34 °C; time window: 0-4 h after rhamnose induction
Protocol: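 In vivo DNA recorder in E. coli TOP10(DE3) ΔrhaA at 34 °C. Each TEVp single-site mutant (parent TEVp 0) is paired with a single-site variant of the 7-mer TEVs (canonical ENLYFQ|S). The substrate sits between flexible linkers in a Bxb1-sfGFP-TEVs-SsrA fusion, so cleavage stabilises Bxb1 and speeds flipping of a recombination array, read by NGS. The value is the raw area under the fraction-flipped curve over 0-4 h after rhamnose induction (AUC4h), with ≥20 reads per time point. It is not background-subtracted; inactive controls average about 0.047.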
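Further: Bxb1 expression induced with 0.2% (w/v) L-rhamnose at OD600 near 0.5, cultures sampled hourly, flipped fraction per protease–substrate barcode pair counted by paired-end Illumina sequencing.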

Variant | area with substrate CNLYFQS | area with substrate DNLYFQS | area with substrate FNLYFQS | area with substrate HNLYFQS | area with substrate KNLYFQS | area with substrate MNLYFQS | area with substrate NNLYFQS | area with substrate PNLYFQS | area with substrate QNLYFQS | area with substrate RNLYFQS | area with substrate TNLYFQS | area with substrate WNLYFQS | area with substrate YNLYFQS | area with substrate GNLYFQS | area with substrate LNLYFQS | area with substrate SNLYFQS | area with substrate INLYFQS | area with substrate VNLYFQS
F49Y | 0.0651 | 0.0641 | 0.0558 | 0.0559 | 0.0563 | 0.0364 | 0.0838 | 0.0611 | 0.0858 | 0.055 | 0.0608 | 0.0589 | 0.0648 |  |  |  |  | 
I15P | 0.0835 | 0.0851 | 0.0653 | 0.0663 | 0.062 | 0.0649 | 0.0556 |  | 0.0656 | 0.0359 | 0.0572 |  | 0.0546 | 0.0717 | 0.0607 | 0.0521 |  | 
S18Q | 0.0542 | 0.111 | 0.0731 | 0.0653 | 0.0669 | 0.0706 |  | 0.0911 |  |  | 0.0847 | 0.0621 | 0.0744 | 0.0603 | 0.0832 |  | 0.0701 | 0.0755
N178A | 0.0668 | 0.0713 |  |  | 0.0589 |  |  | 0.0622 |  |  | 0.107 |  |  |  | 0.0833 |  |  | 
Q151Y | 0.061 | 0.0539 | 0.0455 | 0.0508 | 0.055 | 0.0756 | 0.0693 | 0.0543 | 0.0616 |  | 0.0681 | 0.0534 | 0.0559 | 0.0614 | 0.0737 | 0.0607 | 0.0517 | 0.0671
D79T | 0.0553 | 0.0715 | 0.0595 |  | 0.0577 | 0.0418 |  |  |  |  | 0.0661 | 0.0562 |  |  | 0.0617 | 0.0675 |  | 0.0746
D79S | 0.0701 | 0.0816 |  | 0.0588 | 0.0517 | 0.059 | 0.0678 | 0.0644 | 0.0783 |  | 0.0602 |  | 0.0592 | 0.0657 | 0.0619 | 0.0688 |  | 0.0628
S121I | 0.0732 | 0.0909 |  | 0.0687 | 0.0344 | 0.0957 | 0.0573 | 0.0811 |  | 0.0527 | 0.0649 | 0.0692 |  |  | 0.066 | 0.0615 | 0.058 | 0.0619
S121K | 0.0821 | 0.0938 | 0.068 | 0.0594 |  | 0.0659 | 0.0644 | 0.0753 |  |  | 0.0702 | 0.0386 | 0.0512 |  | 0.054 |  | 0.0437 | 
A196D | 0.0669 | 0.0818 | 0.0646 | 0.0616 | 0.0662 |  | 0.0723 |  |  | 0.068 | 0.0884 |  | 0.0777 | 0.0464 |  |  | 0.0493 | 
Y12C | 0.0671 | 0.089 |  | 0.0566 | 0.0752 | 0.0908 |  | 0.0635 |  |  | 0.0613 |  | 0.0544 | 0.0797 | 0.0718 | 0.0682 | 0.0688 | 0.076
G39Y | 0.0494 | 0.0433 | 0.0696 | 0.0251 |  | 0.0521 |  |  | 0.0467 | 0.0383 | 0.0482 | 0.0365 | 0.0368 |  | 0.0462 | 0.024 |  | 
Q198T | 0.0727 | 0.0854 |  | 0.0576 | 0.0747 |  | 0.0579 | 0.0712 |  |  | 0.0704 |  | 0.0571 |  | 0.048 | 0.05 |  | 0.0703
Q198A | 0.0697 | 0.0645 |  | 0.0579 | 0.0806 | 0.0638 | 0.052 | 0.0916 |  | 0.0654 |  | 0.0591 |  |  |  |  | 0.0663 | 0.0605
R87H | 0.0845 | 0.0679 |  | 0.0472 | 0.0594 | 0.059 | 0.0441 |  | 0.0712 | 0.0461 | 0.0732 |  | 0.0466 |  | 0.0687 | 0.063 |  | 
K221S | 0.0587 | 0.0518 | 0.0637 | 0.0421 | 0.0556 | 0.0634 | 0.0643 |  |  |  | 0.0613 | 0.0569 | 0.0596 |  | 0.0492 | 0.0466 |  | 0.0676
V67S | 0.064 | 0.0684 | 0.0585 |  | 0.0558 | 0.0583 | 0.0529 | 0.0574 |  | 0.0472 | 0.0568 | 0.0499 | 0.0519 | 0.067 | 0.0417 | 0.0698 | 0.0598 | 0.0634
N45E | 0.0796 | 0.0677 |  |  |  | 0.0505 | 0.0567 |  |  |  | 0.0521 | 0.0486 | 0.0494 |  | 0.059 |  | 0.0513 | 0.0494
N45P | 0.0815 | 0.0639 |  |  | 0.0602 | 0.0723 | 0.0594 | 0.0564 |  |  | 0.0563 | 0.0619 |  |  | 0.0544 |  | 0.0641 | 
I110K | 0.0544 | 0.0633 | 0.0607 | 0.0773 | 0.0535 | 0.0587 |  | 0.0564 |  | 0.0587 | 0.0521 | 0.056 | 0.0416 | 0.0633 | 0.0503 | 0.0555 |  | 0.059
S201G | 0.0529 | 0.0576 | 0.0544 | 0.0542 | 0.0956 | 0.0567 | 0.0697 | 0.0606 | 0.058 |  | 0.0392 | 0.0609 | 0.0532 |  |  | 0.0345 |  | 
F41A | 0.042 | 0.0745 |  | 0.0565 | 0.0558 |  | 0.0699 | 0.0574 |  | 0.0472 | 0.0693 | 0.0459 | 0.0501 | 0.0686 | 0.062 | 0.0557 | 0.0026 | 
C131M | 0.075 | 0.0691 | 0.0772 | 0.0768 |  | 0.0728 |  | 0.0804 |  |  | 0.107 |  |  | 0.0548 |  |  |  | 
E223Y | 0.0705 | 0.0779 | 0.0619 | 0.0579 |  | 0.0691 | 0.07 | 0.0494 | 0.0559 |  |  | 0.0588 | 0.0632 | 0.0407 | 0.0595 | 0.0591 | 0.0584 | 0.0696
L205H | 0.0498 | 0.0847 |  |  |  |  | 0.06 |  | 0.0585 |  |  | 0.0538 |  | 0.0647 | 0.0634 |  |  | 
L22C | 0.0589 | 0.0715 | 0.0644 |  | 0.0645 |  | 0.0589 | 0.0666 |  |  | 0.0571 | 0.0528 | 0.0567 | 0.0903 | 0.0691 | 0.0597 | 0.061 | 
L22H | 0.0324 | 0.0378 | 0.0399 | 0.0488 | 0.058 | 0.0557 | 0.0531 | 0.0491 |  | 0.0476 | 0.0474 | 0.0536 | 0.0403 | 0.0253 | 0.0507 | 0.0543 | 0.041 | 0.0516
L235Q | 0.0595 | 0.0905 | 0.0526 | 0.0571 |  | 0.0698 |  |  |  |  |  | 0.057 | 0.0613 | 0.0691 |  | 0.11 | 0.0588 | 0.071
